Test results as given in PMC11408250.
These are yes or no findings as the source states them, for the method shown. Binding seen in cells or lysates may run through a third protein. Some results given as binding are weak or reduced against the parent protein; the word gives no strength. Tags and fused reporters may be left off the sequences shown.

Protein sequences, listed by entry. Tags and fused reporters are not part of them.
UniProt P35222: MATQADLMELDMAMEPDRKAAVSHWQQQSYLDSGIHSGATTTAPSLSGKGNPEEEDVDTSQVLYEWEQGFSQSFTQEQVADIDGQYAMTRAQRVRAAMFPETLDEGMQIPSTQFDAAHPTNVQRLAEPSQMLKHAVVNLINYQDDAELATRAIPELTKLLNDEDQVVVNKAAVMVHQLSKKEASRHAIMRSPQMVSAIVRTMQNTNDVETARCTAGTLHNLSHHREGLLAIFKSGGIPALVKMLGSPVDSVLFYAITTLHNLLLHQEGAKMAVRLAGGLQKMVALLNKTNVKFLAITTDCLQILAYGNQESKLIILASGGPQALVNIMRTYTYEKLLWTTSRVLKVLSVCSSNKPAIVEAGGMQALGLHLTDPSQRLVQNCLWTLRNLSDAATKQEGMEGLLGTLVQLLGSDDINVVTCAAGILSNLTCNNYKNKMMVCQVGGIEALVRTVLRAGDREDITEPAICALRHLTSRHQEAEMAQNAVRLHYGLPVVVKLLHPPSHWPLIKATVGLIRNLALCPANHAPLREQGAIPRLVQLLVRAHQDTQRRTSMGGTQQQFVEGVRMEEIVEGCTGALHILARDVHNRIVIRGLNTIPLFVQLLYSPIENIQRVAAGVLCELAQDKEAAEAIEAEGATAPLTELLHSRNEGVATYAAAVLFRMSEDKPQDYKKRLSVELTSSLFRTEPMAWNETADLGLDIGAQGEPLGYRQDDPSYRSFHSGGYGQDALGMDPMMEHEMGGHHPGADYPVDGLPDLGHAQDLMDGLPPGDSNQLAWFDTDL

Columns and labels:
[1] = target: T1, PCDH10 (pCMV-PCDH10-Myc/HA) (UniProt Q9P2E7); test: co-IP; HEK293T transfected with epitope tagged CAPZA1, αN-catenin or β-catenin and PCDH10 or PCDH12; IP buffer; anti-c-Myc, anti-HA or anti-FLAG beads overnight at 4 °C; western blot
T1 sequence: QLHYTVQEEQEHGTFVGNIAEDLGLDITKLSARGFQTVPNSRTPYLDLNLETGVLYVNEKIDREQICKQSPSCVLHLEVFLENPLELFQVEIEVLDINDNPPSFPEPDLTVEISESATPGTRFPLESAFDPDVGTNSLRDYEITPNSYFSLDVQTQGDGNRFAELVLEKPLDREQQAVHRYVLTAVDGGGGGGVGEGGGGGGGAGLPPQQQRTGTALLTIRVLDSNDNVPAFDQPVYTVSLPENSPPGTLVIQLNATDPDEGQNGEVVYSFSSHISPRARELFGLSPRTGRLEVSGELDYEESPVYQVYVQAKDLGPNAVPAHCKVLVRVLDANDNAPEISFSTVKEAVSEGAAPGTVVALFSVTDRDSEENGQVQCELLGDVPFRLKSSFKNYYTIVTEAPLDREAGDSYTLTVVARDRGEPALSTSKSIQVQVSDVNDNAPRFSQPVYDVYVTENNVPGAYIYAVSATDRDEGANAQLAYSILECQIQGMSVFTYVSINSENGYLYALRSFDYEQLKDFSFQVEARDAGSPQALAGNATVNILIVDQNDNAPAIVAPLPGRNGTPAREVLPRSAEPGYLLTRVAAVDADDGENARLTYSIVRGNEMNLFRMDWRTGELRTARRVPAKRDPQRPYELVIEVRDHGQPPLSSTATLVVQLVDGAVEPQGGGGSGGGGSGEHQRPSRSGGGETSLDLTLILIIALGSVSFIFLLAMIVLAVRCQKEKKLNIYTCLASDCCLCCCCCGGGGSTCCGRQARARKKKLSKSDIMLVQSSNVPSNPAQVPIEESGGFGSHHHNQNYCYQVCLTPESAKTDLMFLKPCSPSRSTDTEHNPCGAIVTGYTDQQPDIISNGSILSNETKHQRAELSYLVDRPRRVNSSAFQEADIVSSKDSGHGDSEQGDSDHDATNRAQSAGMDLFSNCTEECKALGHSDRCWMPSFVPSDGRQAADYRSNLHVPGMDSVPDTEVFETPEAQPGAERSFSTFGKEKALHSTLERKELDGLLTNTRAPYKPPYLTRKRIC

[2] = target: T2, PCDH12 (pCMV-PCDH12-Myc/HA) (UniProt Q9NPG4); test: as above
T2 sequence: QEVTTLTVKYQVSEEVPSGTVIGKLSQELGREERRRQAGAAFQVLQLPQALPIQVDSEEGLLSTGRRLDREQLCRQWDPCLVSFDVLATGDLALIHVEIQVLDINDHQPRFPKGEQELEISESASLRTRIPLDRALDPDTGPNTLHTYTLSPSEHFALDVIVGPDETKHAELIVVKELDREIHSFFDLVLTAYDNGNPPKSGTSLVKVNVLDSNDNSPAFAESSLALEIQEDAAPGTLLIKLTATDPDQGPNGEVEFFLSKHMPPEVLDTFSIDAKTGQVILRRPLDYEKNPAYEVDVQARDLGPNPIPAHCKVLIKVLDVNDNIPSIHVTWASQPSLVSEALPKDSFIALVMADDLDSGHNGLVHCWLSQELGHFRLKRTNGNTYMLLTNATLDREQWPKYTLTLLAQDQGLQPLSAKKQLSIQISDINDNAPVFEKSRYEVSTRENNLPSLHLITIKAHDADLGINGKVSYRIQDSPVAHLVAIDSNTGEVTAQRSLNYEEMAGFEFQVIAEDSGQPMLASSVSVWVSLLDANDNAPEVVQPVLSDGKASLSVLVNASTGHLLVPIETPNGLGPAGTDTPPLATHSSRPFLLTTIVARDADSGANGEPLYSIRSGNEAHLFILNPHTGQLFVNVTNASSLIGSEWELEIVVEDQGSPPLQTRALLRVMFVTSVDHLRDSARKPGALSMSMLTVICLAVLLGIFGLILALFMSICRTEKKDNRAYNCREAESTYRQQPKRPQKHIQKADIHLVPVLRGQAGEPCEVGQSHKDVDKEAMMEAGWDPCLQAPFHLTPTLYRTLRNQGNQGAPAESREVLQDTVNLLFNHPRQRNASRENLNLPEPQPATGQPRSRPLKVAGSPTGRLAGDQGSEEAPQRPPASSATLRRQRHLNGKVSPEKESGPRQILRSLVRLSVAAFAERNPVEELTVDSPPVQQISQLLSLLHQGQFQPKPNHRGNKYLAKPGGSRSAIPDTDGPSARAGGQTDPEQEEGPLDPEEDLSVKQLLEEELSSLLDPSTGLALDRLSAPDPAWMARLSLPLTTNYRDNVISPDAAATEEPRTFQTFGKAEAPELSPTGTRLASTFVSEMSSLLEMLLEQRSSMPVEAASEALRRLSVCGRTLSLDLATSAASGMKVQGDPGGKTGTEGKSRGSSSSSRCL

- binding [1]: binds
- binding [2]: no binding
Substance: β-catenin-V5 (from UniProt P35222 1-781)
